Assay results taken from the supplement of paper PMC10369915.
The other results are listed elsewhere or left out. No stated cut-off is given here; in the data, active = 3.2 or more and inactive = the rest. Only a few entries rise above the background.

B1: MAX_Y70_I71S_YF (peptide)
chain: DKATEYSQFMR
B2: MCCC2_Y520_YF (peptide)
chain: EEGNPYFSSAR
B3: MCCC2_Y520_A524T (peptide)
chain: EEGNPYYSSTR
B4: MCM6_Y810_E806K (peptide)
chain: YKEDPYLVVNP
B5: MATR3_Y784_N787S (peptide)
chain: YRIGPYQPSVP
B6: MAX_Y70_YF (peptide)
chain: DKATEYIQFMR
B7: MCCC2_Y520 (peptide)
chain: EEGNPYYSSAR
B8: MAST2_Y461_P459A (peptide)
chain: CDIARYIVSQL
B9: MAX_Y73_M74V_YF (peptide)
chain: TEFIQYVRRKN
B10: MAX_Y70_I71S (peptide)
chain: DKATEYSQYMR
B11: MCCC2_Y520_Y520S_YF (peptide)
chain: EEGNPSFSSAR
B12: MCCC2_Y520_S523G_YF (peptide)
chain: EEGNPYFSGAR
B13: MCM2_Y137_L135F (peptide)
chain: RRGFLYDSDEE
B14: MCM3AP_Y864_A867D (peptide)
chain: VQSASYLNDCL
B15: MAVS_Y92_YF (peptide)
chain: EVASVYQSFQP
B16: MAPT_Y627_S622N (peptide)
chain: NVQIVYKPVDL
B17: MATR3_Y784_YF (peptide)
chain: FRIGPYQPNVP
B18: MBD1_Y403 (peptide)
chain: GSPPPYRRRKR
B19: MAX_Y73_YF (peptide)
chain: TEFIQYMRRKN
B20: MC4R_Y35_S36Y (peptide)
chain: SLGKGYYDGGC
B21: MCM3AP_Y873_L870S (peptide)
chain: CLSHCYFSQIR
B22: MAX_Y115 (peptide)
chain: QLQTNYPSSDN
B23: MCM2_Y137 (peptide)
chain: RRGLLYDSDEE
B24: MCCC2_Y196_R193C (peptide)
chain: FGCTFYNQAIM
B25: MECP2_Y120_L124F (peptide)
chain: RSAGKYDVYFI
B26: MC4R_Y35_D37V (peptide)
chain: SLGKGYSVGGC
B27: MC4R_Y41_D37V (peptide)
chain: SVGGCYEQLFV
B28: MCCC2_Y520_A524T_YF (peptide)
chain: EEGNPYFSSTR
B29: MCM3AP_Y873_R878H (peptide)
chain: CLLHCYFSQIH
B30: MCFD2_Y138_I136T (peptide)
chain: DGYTDYAEFAK
B31: MCM3AP_Y864 (peptide)
chain: VQSASYLNACL
B32: MCFD2_Y135_YF (peptide)
chain: KNNDGYIDFAE
B33: MCM4_Y459 (peptide)
chain: RKPDIYERLAS
B34: MAVS_Y92_Q93E (peptide)
chain: EVASVYESYQP
B35: MCM6_Y810_YF (peptide)
chain: FEEDPYLVVNP
B36: MCCC1_Y41 (peptide)
chain: QRTMKYTTATG
B37: MAPT_Y627 (peptide)
chain: SVQIVYKPVDL

Experiments:
Experiment in all cases: enrichment score (SH2-bound / input frequency) (ratio); bacterial display of known human phosphotyrosine sites (pTyr-Var adds point mutants) read by sequencing; higher = stronger binding; tyrosines were phosphorylated by kinases first
Conditions in all cases: peptide library: pTyr-Var
[1] = molecular target: SHP2 C-SH2 domain E139D
[2] = molecular target: SHP2 C-SH2 domain wild-type
[3] = molecular target: SHP2 N-SH2 domain L43F
[4] = molecular target: SHP2 N-SH2 domain T42A
[5] = molecular target: SHP2 N-SH2 domain T52S
[6] = molecular target: SHP2 N-SH2 domain wild-type
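Further: displayed peptides selected on beads carrying the immobilized SH2 domain, with library peptides lacking any tyrosine serving as negative controls.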

Binder | enrichment score [1] | enrichment score [2] | enrichment score [3] | enrichment score [4] | enrichment score [5] | enrichment score [6]
B1 | inactive: 0.755 | inactive: 0.661 | inactive: 0.694 | inactive: 0.619 | inactive: 0.608 | inactive: 0.816
B2 | inactive: 0.639 | inactive: 0.608 | inactive: 0.498 | inactive: 0.456 | inactive: 0.648 | inactive: 0.578
B3 | inactive: 0.496 | inactive: 0.732 | inactive: 0.533 | inactive: 0.539 | inactive: 0.554 | inactive: 0.625
B4 | inactive: 0.906 | inactive: 0.94 | inactive: 0.95 | inactive: 0.824 | inactive: 0.941 | inactive: 1.13
B5 | inactive: 0.739 | inactive: 0.756 | inactive: 0.893 | inactive: 0.621 | inactive: 0.75 | inactive: 0.927
B6 | inactive: 0.914 | inactive: 0.771 | inactive: 0.948 | inactive: 0.878 | inactive: 0.807 | inactive: 0.779
B7 | inactive: 0.445 | inactive: 0.453 | inactive: 0.471 | inactive: 0.428 | inactive: 0.491 | inactive: 0.559
B8 | inactive: 0.883 | inactive: 1.16 | inactive: 0.886 | inactive: 0.969 | inactive: 1.11 | inactive: 1.52
B9 | inactive: 0.129 | inactive: 0.175 | inactive: 0.223 | inactive: 0.234 | inactive: 0.184 | inactive: 0.149
B10 | inactive: 0.623 | inactive: 0.834 | inactive: 0.447 | inactive: 0.62 | inactive: 0.687 | inactive: 0.676
B11 | inactive: 0.592 | inactive: 0.656 | inactive: 0.431 | inactive: 0.58 | inactive: 0.445 | inactive: 0.612
B12 | inactive: 0.601 | inactive: 0.556 | inactive: 0.503 | inactive: 0.517 | inactive: 0.533 | inactive: 0.687
B13 | inactive: 0.414 | inactive: 0.302 | inactive: 0.515 | inactive: 0.343 | inactive: 0.379 | inactive: 0.207
B14 | inactive: 1.05 | inactive: 0.819 | inactive: 0.752 | inactive: 0.713 | inactive: 0.784 | inactive: 1.04
B15 | inactive: 0.858 | inactive: 0.768 | inactive: 0.968 | inactive: 0.737 | inactive: 0.847 | inactive: 1.01
B16 | inactive: 1.12 | inactive: 0.946 | inactive: 1.13 | active: 4.69 | inactive: 1.36 | inactive: 1.15
B17 | inactive: 1.39 | inactive: 1.44 | inactive: 1.47 | inactive: 1.14 | inactive: 1.54 | inactive: 1.27
B18 | inactive: 0.311 | inactive: 0.298 | inactive: 0.295 | inactive: 0.275 | inactive: 0.254 | inactive: 0.264
B19 | inactive: 0.215 | inactive: 0.197 | inactive: 0.186 | inactive: 0.262 | inactive: 0.328 | inactive: 0.297

Binder | enrichment score [1] | enrichment score [2] | enrichment score [3] | enrichment score [4] | enrichment score [5] | enrichment score [6]
B20 | inactive: 0.871 | inactive: 0.952 | inactive: 0.751 | inactive: 0.925 | inactive: 0.776 | inactive: 0.965
B21 | active: 4.25 | active: 3.71 | active: 3.44 | inactive: 3.15 | active: 3.74 | active: 3.32
B22 | inactive: 0.672 | inactive: 0.644 | inactive: 0.659 | inactive: 0.537 | inactive: 0.78 | inactive: 0.817
B23 | inactive: 0.168 | inactive: 0.28 | inactive: 0.413 | inactive: 0.265 | inactive: 0.301 | inactive: 0.242
B24 | inactive: 1.03 | inactive: 1.5 | inactive: 0.988 | inactive: 1.16 | inactive: 0.89 | inactive: 1.44
B25 | inactive: 0.553 | inactive: 0.834 | inactive: 0.981 | inactive: 0.471 | inactive: 0.909 | inactive: 0.796
B26 | inactive: 0.633 | inactive: 0.736 | inactive: 0.612 | inactive: 0.693 | inactive: 0.537 | inactive: 0.828
B27 | inactive: 0.994 | inactive: 1.12 | inactive: 0.875 | inactive: 0.947 | inactive: 0.801 | inactive: 1.47
B28 | inactive: 0.485 | inactive: 0.519 | inactive: 0.606 | inactive: 0.546 | inactive: 0.38 | inactive: 0.608
B29 | active: 3.76 | active: 3.5 | inactive: 2.61 | inactive: 2.29 | inactive: 2.63 | inactive: 3.09
B30 | inactive: 0.511 | inactive: 0.459 | inactive: 0.678 | inactive: 0.347 | inactive: 0.508 | inactive: 0.48
B31 | inactive: 0.871 | inactive: 1.06 | inactive: 0.892 | inactive: 0.786 | inactive: 0.842 | inactive: 1.07
B32 | inactive: 0.441 | inactive: 0.552 | inactive: 0.596 | inactive: 0.765 | inactive: 0.567 | inactive: 0.668
B33 | inactive: 1.01 | inactive: 0.894 | inactive: 0.846 | inactive: 0.772 | inactive: 0.709 | inactive: 1.13
B34 | inactive: 0.84 | inactive: 0.911 | inactive: 0.834 | inactive: 0.879 | inactive: 0.707 | inactive: 0.915
B35 | inactive: 0.729 | inactive: 0.764 | inactive: 0.749 | inactive: 0.834 | inactive: 0.815 | inactive: 1.01
B36 | inactive: 0.903 | inactive: 1.01 | inactive: 0.946 | inactive: 0.749 | inactive: 1.24 | inactive: 0.937
B37 | inactive: 1.06 | inactive: 0.868 | inactive: 1.2 | active: 5.52 | inactive: 1.21 | inactive: 1.21
